According to the supplement of paper PMC10126150:
Values marked as one replicate rest on one cluster of the flow cell; about a third of the high ones do not repeat.

System: ATP
Assay: switch fluorescence ratio, 500 uM ATP over buffer (Cy3 cluster intensity, sum of 5 cycles each) (fold (ratio)); higher = stronger signal-on switching upon ATP binding; sequences stand for … in TCGTCGGCAGCGTCAGATGTGTATAAGAGACAGTTTTTTTTTTTTTTTTTTTTTTTTT…TC
Conditions: aptamer strand: ATP DNA aptamer (quencher-CACCTGGGGGAGTATTGCGGAGGAAGG + anchor), 100 nM annealed; ATP concentration: 500 uM; one replicate
Procedure, shortened: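 The fluorescence ratio divides summed target-cycle Cy3 intensity by summed buffer-cycle Cy3 intensity for each cluster and is averaged per switch-domain sequence. Cy3-labelled switching-strand clusters on a modified Illumina MiSeq flow-cell were annealed to 100 nM quencher-labelled ATP aptamer, then imaged in selection buffer and again after 15 min with 500 uM ATP at 22 °C. Five such cycles were run, with NaOH stripping and re-annealing between them, and clusters outside 100-1000 RFU were excluded.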
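Further: ATP exposure 15 min at 22 °C before imaging.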

TTTGTACGTC showed a switch fluorescence ratio of 1.07.
GCTCTTGCAC gave a switch fluorescence ratio of 1.03.
Work on GGGCAAATGT yielded a switch fluorescence ratio of 1.01.
Sequence GGGGCAGAGA has a switch fluorescence ratio of 0.99.
Work on CAGTTGTTAG yielded a switch fluorescence ratio of 1.02.
Work on TTTTCTAACG yielded a switch fluorescence ratio of 1.06.
Sequence AGCGATAGGA has a switch fluorescence ratio of 1.15.
CAGACAAACG was tested, and the switch fluorescence ratio was 1.08.
GTATACCCAT showed a switch fluorescence ratio of 1.01.
Work on CGAGTAAGTT yielded a switch fluorescence ratio of 0.994.
GGTCTGTGAC showed a switch fluorescence ratio of 0.979.
For CTACTCCCGG, the switch fluorescence ratio was 1.53.
AGAGCATGCC showed a switch fluorescence ratio of 1.05.
ATCCCGGTTG was tested, and the switch fluorescence ratio was 1.09.
Work on TGAGTAGGCA yielded a switch fluorescence ratio of 0.961.
GCTAGTATCC showed a switch fluorescence ratio of 1.
With GGTAACACGA the switch fluorescence ratio was 1.05.
With GTACTAGTCC the switch fluorescence ratio was 0.986.
In the case of TCCCAACGTG, the switch fluorescence ratio is reported as 1.11.
Work on TCGAGTCATA yielded a switch fluorescence ratio of 1.03.
In the case of GGATTTTA, the switch fluorescence ratio is reported as 1.09.
TGATAGTAGG gave a switch fluorescence ratio of 0.988.
CCTTTAGACG was tested, and the switch fluorescence ratio was 0.999.
In the case of CAAAATCTCG, the switch fluorescence ratio is reported as 1.05.
ACCGTCCTCT showed a switch fluorescence ratio of 1.48.
Work on CAGTTCCACA yielded a switch fluorescence ratio of 1.04.
GAGGAATATA gave a switch fluorescence ratio of 0.974.
GTTCATCAGA gave a switch fluorescence ratio of 1.01.
With GTTTTTGCGA the switch fluorescence ratio was 0.972.
TGTTATCGAG gave a switch fluorescence ratio of 0.983.
CTATGACCCA showed a switch fluorescence ratio of 1.04.
With AACCACGATG the switch fluorescence ratio was 1.11.
Work on GAACGCGGGA yielded a switch fluorescence ratio of 1.05.
ACTTTTTCCG showed a switch fluorescence ratio of 1.14.
For CATCTAAACT, the switch fluorescence ratio was 1.05.
ACGTCACGCA was tested, and the switch fluorescence ratio was 1.65.
For CCTTTGGACT, the switch fluorescence ratio was 1.01.
GTATAGTATT was tested, and the switch fluorescence ratio was 0.974.
AATTGGTCAG gave a switch fluorescence ratio of 0.968.
GACGGAGGTA gave a switch fluorescence ratio of 1.09.
TCACTCACCA showed a switch fluorescence ratio of 1.23.
With TTTGGAAGTA the switch fluorescence ratio was 0.937.
For ATCTTGATG, the switch fluorescence ratio was 0.992.
With TTTCGATCCT the switch fluorescence ratio was 1.02.
For GGGGCTGGTG, the switch fluorescence ratio was 0.992.
In the case of GGTACTGC, the switch fluorescence ratio is reported as 0.988.
For TTCTGATATA, the switch fluorescence ratio was 0.978.
In the case of TCAGTGGACT, the switch fluorescence ratio is reported as 0.967.
ACGTAAATGC showed a switch fluorescence ratio of 1.64.
ATTTTGTATC was tested, and the switch fluorescence ratio was 1.01.
TGTATCTTGA gave a switch fluorescence ratio of 0.953.
CCTCTATCT showed a switch fluorescence ratio of 1.1.
For ACATCATC, the switch fluorescence ratio was 1.04.
TGGGATATAA gave a switch fluorescence ratio of 0.953.
With CAGTGCGGTT the switch fluorescence ratio was 1.
Work on GCTACTGCCT yielded a switch fluorescence ratio of 0.989.
TGAATGGTTG was tested, and the switch fluorescence ratio was 0.951.
Work on AGGAGTGGGC yielded a switch fluorescence ratio of 0.718.
Work on GACGGAAACG yielded a switch fluorescence ratio of 0.98.
Work on GCAAGATGCC yielded a switch fluorescence ratio of 1.1.
Work on AATCGTTTAC yielded a switch fluorescence ratio of 1.03.
In the case of ATATAATAAT, the switch fluorescence ratio is reported as 1.
TTTGCTCACC showed a switch fluorescence ratio of 1.01.
For GGTCCCCCGT, the switch fluorescence ratio was 1.02.
CAAGGATGAG showed a switch fluorescence ratio of 0.983.
In the case of AACGTGAGTC, the switch fluorescence ratio is reported as 0.969.
In the case of AATTGGTTTG, the switch fluorescence ratio is reported as 0.957.
Work on CATGGGAATG yielded a switch fluorescence ratio of 1.01.
ATTTTCGCCG showed a switch fluorescence ratio of 1.06.
Sequence CACCCGGATG has a switch fluorescence ratio of 1.66.
CATAAACCAT showed a switch fluorescence ratio of 0.996.
Work on AATCTCATCT yielded a switch fluorescence ratio of 1.02.
For AGAGCTAATC, the switch fluorescence ratio was 1.06.
TGGACAACGT was tested, and the switch fluorescence ratio was 1.
In the case of AGAGGGTTT, the switch fluorescence ratio is reported as 1.01.
Work on CCCGGGAGGA yielded a switch fluorescence ratio of 1.02.
CTTATAAAAA showed a switch fluorescence ratio of 1.02.
Work on ACTTAGTGTT yielded a switch fluorescence ratio of 1.03.
For TCCGGTTCGC, the switch fluorescence ratio was 1.13.
For GACACTGGGA, the switch fluorescence ratio was 1.
With AACTCAGGGA the switch fluorescence ratio was 1.02.
With CGGAGGTCAT the switch fluorescence ratio was 0.967.
In the case of ATGGTACCAG, the switch fluorescence ratio is reported as 1.03.
Sequence CAGGTATGG has a switch fluorescence ratio of 0.996.
ACTGAGATGG gave a switch fluorescence ratio of 1.03.
Sequence CATATGTATT has a switch fluorescence ratio of 0.981.
ATATAACCGG showed a switch fluorescence ratio of 0.98.
AAGGGGAA was tested, and the switch fluorescence ratio was 1.
CGGCGAGTCT was tested, and the switch fluorescence ratio was 1.01.
For CCGGGCAACA, the switch fluorescence ratio was 3.63.
ATTAATACCC showed a switch fluorescence ratio of 1.02.
In the case of CTCGGATCCG, the switch fluorescence ratio is reported as 1.12.
TATAGATTT was tested, and the switch fluorescence ratio was 0.996.
For TCGTAGTTAC, the switch fluorescence ratio was 2.47.
AACGTTCTCT gave a switch fluorescence ratio of 1.05.
AGACTCTTAT gave a switch fluorescence ratio of 1.02.
AACCAATATA gave a switch fluorescence ratio of 0.967.
Sequence CGCCTCAAGT has a switch fluorescence ratio of 1.04.
GAATACAAGT was tested, and the switch fluorescence ratio was 0.966.
Work on GAGCACAACG yielded a switch fluorescence ratio of 0.982.
For TATGGGTGTT, the switch fluorescence ratio was 0.931.
AACGATGCGG gave a switch fluorescence ratio of 1.03.
AAGAGTATGC showed a switch fluorescence ratio of 0.878.
In the case of CATTTTATGA, the switch fluorescence ratio is reported as 1.01.
Work on TTTCCGATGT yielded a switch fluorescence ratio of 2.11.
With GGAGTTTTCT the switch fluorescence ratio was 0.965.
For ATGCGTCGAT, the switch fluorescence ratio was 1.01.
ATCATTTCGG gave a switch fluorescence ratio of 0.97.
GGGTGATCAG was tested, and the switch fluorescence ratio was 0.97.
GTTGGCAATT was tested, and the switch fluorescence ratio was 0.931.
Sequence AGCCTAATGA has a switch fluorescence ratio of 0.97.
GACTCTGGTT was tested, and the switch fluorescence ratio was 1.
TTTGATCCCT showed a switch fluorescence ratio of 1.03.
Work on ATCATCAAAC yielded a switch fluorescence ratio of 0.996.
GGGAAGCACT gave a switch fluorescence ratio of 1.03.
Work on AGGCGCGTAT yielded a switch fluorescence ratio of 1.06.
ACTACTTTAT gave a switch fluorescence ratio of 0.999.
In the case of AGTGAAGGGC, the switch fluorescence ratio is reported as 0.979.
In the case of ACCAGCAGTA, the switch fluorescence ratio is reported as 1.03.
For AGTTCCGGGG, the switch fluorescence ratio was 1.02.
Sequence TAAATAGGAA has a switch fluorescence ratio of 1.01.
In the case of TTTGAGAA, the switch fluorescence ratio is reported as 1.01.
For ACCGAGATAT, the switch fluorescence ratio was 1.13.
With TAACTCGCAA the switch fluorescence ratio was 2.13.
GCCAAACGTC gave a switch fluorescence ratio of 1.1.
Work on TGTGGAGGAT yielded a switch fluorescence ratio of 0.967.
For AGCGTAGCTG, the switch fluorescence ratio was 1.03.
For GGGGCTCAGG, the switch fluorescence ratio was 1.08.
CAGTATCATA showed a switch fluorescence ratio of 0.994.
In the case of AGGACCAGTC, the switch fluorescence ratio is reported as 1.05.
Sequence GCGATGGAGC has a switch fluorescence ratio of 0.979.
TCAGGTTTAT was tested, and the switch fluorescence ratio was 1.01.
In the case of GCGCATGTTG, the switch fluorescence ratio is reported as 0.987.
GGTCGTTCCC was tested, and the switch fluorescence ratio was 0.973.
AACGTCAGTG gave a switch fluorescence ratio of 0.971.
Sequence GGAACTTTGC has a switch fluorescence ratio of 1.04.
Sequence TATTGGAGAA has a switch fluorescence ratio of 1.01.
With ATCGTTGGGC the switch fluorescence ratio was 1.04.
In the case of TAATTGCGCT, the switch fluorescence ratio is reported as 1.02.
Work on AAGGAGCGGA yielded a switch fluorescence ratio of 1.05.
In the case of AATGACAGC, the switch fluorescence ratio is reported as 1.01.
Work on ATGGGGCAAG yielded a switch fluorescence ratio of 1.01.
TATCGATTAA gave a switch fluorescence ratio of 1.12.
CATAAGTGCG gave a switch fluorescence ratio of 0.985.
GCCTGAG showed a switch fluorescence ratio of 1.13.
In the case of CCAAAGTAAA, the switch fluorescence ratio is reported as 1.16.
AACCTTTGGG gave a switch fluorescence ratio of 1.01.
For GGCGAATTG, the switch fluorescence ratio was 1.
For CGCTATACAG, the switch fluorescence ratio was 1.49.
AGGTATATCT showed a switch fluorescence ratio of 0.996.
TTACATGCGG showed a switch fluorescence ratio of 0.992.
For TGGTTGGAG, the switch fluorescence ratio was 1.2.
Sequence ATTTGCAAAA has a switch fluorescence ratio of 1.02.
With TCTCCATACA the switch fluorescence ratio was 1.24.
Sequence CGTTGGTTGC has a switch fluorescence ratio of 1.05.
Work on CAATTACAGT yielded a switch fluorescence ratio of 1.03.
CGCCTTGGGA gave a switch fluorescence ratio of 1.01.
ACAATGTGAG was tested, and the switch fluorescence ratio was 1.03.
For GCTGTCAGGT, the switch fluorescence ratio was 1.01.
ATATAATCGA showed a switch fluorescence ratio of 0.976.
In the case of ACCCCCATTC, the switch fluorescence ratio is reported as 1.35.
Work on AGTTGGACC yielded a switch fluorescence ratio of 1.04.
With CATCGACGTA the switch fluorescence ratio was 1.22.
In the case of ATGCAGCGC, the switch fluorescence ratio is reported as 0.965.
TCTTTCCTTA showed a switch fluorescence ratio of 1.02.
For TCTATTATTA, the switch fluorescence ratio was 0.987.
TGGATAGCAT gave a switch fluorescence ratio of 1.02.
CAGTTATTTA showed a switch fluorescence ratio of 0.965.
With GCTGCTGACC the switch fluorescence ratio was 1.01.
GTCTTCAAGT was tested, and the switch fluorescence ratio was 1.08.
Work on GATTTAGGAT yielded a switch fluorescence ratio of 1.03.
GTAAGAGCGA gave a switch fluorescence ratio of 1.04.
Sequence GTAAACGGGG has a switch fluorescence ratio of 0.998.
GCCCCGTGAG gave a switch fluorescence ratio of 1.81.
CGTCGGTTAT showed a switch fluorescence ratio of 1.02.
In the case of TGATTCCC, the switch fluorescence ratio is reported as 0.978.
For CGAGCGATAA, the switch fluorescence ratio was 2.79.
CCTCCAAGGG was tested, and the switch fluorescence ratio was 2.69.
Work on CCTTTGGATG yielded a switch fluorescence ratio of 1.02.
With ACACAGGGTG the switch fluorescence ratio was 1.04.
In the case of ATCGGGTTGT, the switch fluorescence ratio is reported as 0.988.
TAAATTCTT showed a switch fluorescence ratio of 1.01.
CCTCCCTTGA gave a switch fluorescence ratio of 3.5.
TTACAGATCT gave a switch fluorescence ratio of 0.972.
Work on AACCCCCTAC yielded a switch fluorescence ratio of 1.31.
ATATCACTAA gave a switch fluorescence ratio of 1.04.
TACCCATATT was tested, and the switch fluorescence ratio was 0.999.
In the case of CAGGTTGGTA, the switch fluorescence ratio is reported as 1.01.
Sequence GTCGATCTGC has a switch fluorescence ratio of 0.939.
ACCGGGCGCT was tested, and the switch fluorescence ratio was 1.02.
ATGTAAAAGC showed a switch fluorescence ratio of 1.16.
Sequence TTGAATTTCC has a switch fluorescence ratio of 1.33.
Work on TCGTAGACAG yielded a switch fluorescence ratio of 0.954.
CTGGATGGGC gave a switch fluorescence ratio of 0.983.
Sequence CGCGGTAACT has a switch fluorescence ratio of 1.36.
Work on AGACGCCTGA yielded a switch fluorescence ratio of 0.977.
With AGACAGTGGC the switch fluorescence ratio was 1.09.
CTTGCGCCGC showed a switch fluorescence ratio of 2.51.
GATAACAGCC gave a switch fluorescence ratio of 1.01.
With TGTGTGCTCG the switch fluorescence ratio was 0.995.
For AGGTTAGGCC, the switch fluorescence ratio was 0.98.
